This passage reports displacement results from PubChem BioAssay AID1240 (Sanford-Burnham Center for Chemical Genomics, 2008).

The whole screen tested about 50,000 compounds, of which about 800 (1.6%) showed an effect of 50% or more. The list shows a part of the results.

The experiment has as its target Bcl-2-like protein 10 (Homo sapiens) (UniProt Q9HD36). Kind of experiment: TR3 peptide-Bcl-B binding displacers, biochemical primary FP assay, phenotype converters (AID 1240).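 Also: 0% = Bcl-B with tracer peptide and DMSO and 100% = tracer peptide lacking Bcl-B.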 The settings on record: GST-Bcl-B / FITC-TR3 peptide fluorescence polarization; stronger effect = higher value; compound at 3.75 mg/L. A general note: Polarisation of emitted light reports the rotation of a fluorescent probe.
UniProt Q9HD36, sequence (Q9HD36 whole entry, looked up): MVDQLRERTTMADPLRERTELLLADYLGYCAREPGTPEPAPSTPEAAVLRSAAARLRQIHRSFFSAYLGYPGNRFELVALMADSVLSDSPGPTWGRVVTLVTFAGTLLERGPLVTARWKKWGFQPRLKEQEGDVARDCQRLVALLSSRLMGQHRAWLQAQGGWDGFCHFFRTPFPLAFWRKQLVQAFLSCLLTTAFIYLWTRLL
In the case of `Cc1nc2c(CN3CCCCC3)c(O)ccc2[nH]1`, the displacement was -16.2%. `N#Cc1c(N)n(-c2cccc(O)c2)c2nc3ccccc3nc12`: the displacement was found to be 44.2%. The result for `COc1c(O)ccc(/C=N\NC(=O)c2ccc3c(c2)OCO3)c1[N+](=O)[O-]` reads 4.7%. For `Cc1onc(-c2ccccc2)c1C(=O)N1CCN(c2ccc([N+](=O)[O-])cc2)CC1` the value was 7.3%. For `COc1ccc(C=Nc2ccc3nn(-c4ccccc4)nc3c2)cc1` the value was 5.2%; for `CC1=CC(C)C(C(=O)O)C(C(=O)Nc2cccnc2)C1` (stereo not given), -5.7%; for `O=S(=O)(c1ccc(Cl)cc1)N1CCN(C/C=C/c2ccccc2)CC1`, -7.4%. With `COc1ccc(C2NN=C(Cc3ccccc3)S2)cc1` (stereo not given), the displacement was -2.8%.

As to `COc1ccc(C(=O)N2CCN(S(=O)(=O)c3ccc(Cl)cc3)CC2)cc1`, the displacement was -10.9%. The result for `CCOc1ccc(NC(=O)c2cncc(Br)c2)cc1` reads 17.9%; that for `COc1ccc(OC)c(NC(=O)c2ccc3c(c2)C(=O)N(c2cccc([N+](=O)[O-])c2)C3=O)c1`, 11.8%; that for `O=Cc1ccc(OCc2ccc([N+](=O)[O-])cc2)cc1`, 9.2%. Regarding `CC(C)(C)OC(=O)N1N=C(c2ccccc2)CC1(O)C(F)(F)F` (stereo not given), the displacement was determined as 15.2%. As to `COc1ccc(C)cc1NC(=O)CC(C)=O`, the displacement was 11.4%. For `CC(=O)Oc1cccc(N2C(=O)c3ccc(C(=O)Nc4c[nH]c(=O)[nH]c4=O)cc3C2=O)c1` the value was 11.4%; for `CCC(C)c1ccccc1OCC(=O)Nc1nccs1` (stereo not given), 9.9%; for `COc1ccc(N=Cc2c(O)n(-c3cc(OC)ccc3OC)c(=O)[nH]c2=O)c(OC)c1`, 10.8%.

Regarding `COc1cc2c(cc1NC(=O)COc1ccccc1OC)oc1ccccc12`, the displacement was 0.7%.

Consider `CCOC(=O)CNC(c1ccccc1)c1cc(Br)ccc1NC(=O)OCC` (stereo not given), for which the displacement was found to be 13.2%. For `CCN(CC)C(=S)Sc1nc(Nc2ccc(OC)cc2)nc(Nc2cccc([N+](=O)[O-])c2)n1` the value was 1%; for `O=C(CSc1nc2ccc(N3C(=O)c4ccccc4C3=O)cc2s1)c1ccc([N+](=O)[O-])cc1`, -8.6%. The result for `COc1cc(/C=C2\C(=O)NC(=O)N(c3ccc(C)cc3)C2=O)ccc1OCc1ccccc1` reads 38.6%; that for `O=C(N/N=C/C1CC=CCC1)c1cc(Br)ccc1O` (stereo not given), 2.2%; that for `COc1ccccc1C(=O)NC(=S)Nc1cccc2c(C)cc(C)nc12`, 1.1%. For `O=C(O)c1cc(Br)ccc1NC(=O)C(c1ccccc1)c1ccccc1` the value was 0%; for `Cn1c(=O)c2c3c(sc2n(CC(=O)c2ccc(Cl)cc2)c1=O)COC(C)(C)C3`, -4.7%; for `COc1ccc(Cl)cc1NC(=O)C1=C(C)NC(=O)NC1c1ccccc1Br` (stereo not given), 11.4%.

For the molecule `Nc1nonc1C(=O)NCCNC(=O)CCc1ccccc1`, the displacement was determined as 8.8%.

Regarding `O=C(c1cc2n(n1)C(C(F)(F)F)CC(c1ccccc1)N2)N1CCOCC1` (stereo not given), the displacement turned out to be 5.1%. As for `COC(=O)C(NC(=O)c1ccccc1)C12CC3CC(CC(C3)C1)C2` (stereo not given), the displacement was found to be 14.9%. For the molecule `Cc1nnc(N2C(=O)c3ccc(-c4nc5ccccc5c(=O)o4)cc3C2=O)s1`, the displacement was found to be 9.9%. As for `CCCC(=O)Nc1cccc(NC(=O)COc2ccccc2C)c1`, the displacement was -1.8%. As for `Cc1nn(-c2ccccc2)c(C)c1Sc1ccc(Cl)cc1`, the displacement is 3.2%. The result for `O=C(NNc1c(Cl)cc(Cl)cc1Cl)c1cccs1` reads -3.6%. For `COc1ccccc1OCC(=O)NNC(=O)c1cccnc1` the value was -6.4%; for `COc1ccc(CC(=O)Nc2sc3c(c2C(=O)Nc2ccccc2OC)CCC3)cc1`, -9.7%. On to `O=C(Nc1ccc(S(=O)(=O)Nc2ncccn2)cc1)c1cccnc1`, for which the displacement was 4.9%. The result for `O=C1C(Cl)=C(Nc2ccc(O)cc2)c2c(Cl)c(Cl)c(Cl)c(Cl)c21` reads 6.9%; that for `COc1ccc(N2CC(C(=O)N/N=C/c3c(Cl)cccc3Cl)CC2=O)cc1` (stereo not given), 0.2%; that for `CCC(=O)O/C(C#N)=N\Nc1nc2c([nH]1)c(=O)n(C)c(=O)n2C`, -66%. For `CS(=O)(=O)N1CCN(CCCc2ccccc2)CC1`, the displacement was found to be 9.6%.

Regarding `CCCCOc1cccc(C(=O)Nc2ccc(-c3nc4ccccc4s3)c(O)c2)c1`, the displacement came to 1.7%. For `CC(C)NC(=O)c1cnn(-c2ccccc2)c1NC(=O)c1ccccc1` the value was -3.6%; for `Cc1c(Cl)cccc1NC(=O)C(=O)NCCO`, 7.2%. In the case of `Brc1ccc(-c2nc(-c3ccccc3)no2)cc1`, the displacement is -5.1%. For `CCOC(=O)c1ccccc1NC(=O)CN(c1ccc(C)cc1)S(=O)(=O)c1ccc(F)cc1`, the displacement came to 10.2%. For `CCC1CCc2c(sc(NC(=O)Nc3ccccc3)c2C(N)=O)C1` (stereo not given), the displacement was -3.3%.

Turning to `O=C(Nc1ccccc1F)c1ccccc1`, the displacement turned out to be 16.5%. Take `C=CCN1C(=O)/C(=C\c2ccc3c(c2)OCO3)C(=O)NC1=S`: the displacement came to 4.4%. The result for `Cc1cccc(/C(N)=N/OC(=O)CCc2ccccc2)c1` reads 9.2%; that for `O=C(Nc1ccccc1CO)c1ccccc1F`, 2.6%; that for `CC1=C(C(=O)Nc2ccccc2)C(c2cccc(I)c2)NC(=S)N1` (stereo not given), -2.1%. Take `O=C1C(=O)N(c2nc3ccccc3s2)C(c2ccc3c(c2)OCO3)/C1=C(/O)c1ccccc1` (stereo not given): the displacement came to 12.7%. `Cc1ccc(NC(=S)NC(=O)c2ccc(Cl)cc2)cc1C`: the displacement is 2.5%. Take `O=C(/C=C/c1ccccc1[N+](=O)[O-])c1ccc(F)cc1`: the displacement was -0.7%. Regarding `O=C(CCC(NC(=O)OCc1ccccc1)C(=O)OCc1ccccc1)Nc1ccccc1` (stereo not given), the displacement came to 6.3%.

On to `C=CCNC(=S)Nc1sc(C)c(C)c1C(=O)OCC`, for which the displacement came to 14.9%. For `CCc1c(C#N)c(N)nc(SCC(=O)c2ccc(Cl)c(Cl)c2)c1C#N` the value was 1.7%; for `Cc1ccc(N2C(=O)/C(=C/c3ccccc3)SC2=S)cc1C`, 15.2%; for `O=C(O)c1cc2n(n1)C(C(F)(F)F)CC(c1cccs1)N2` (stereo not given), -1.1%. For `COc1ccc(C)cc1NC(=O)C(=O)NCCc1ccc(OC)c(OC)c1` the value was 9.6%. Regarding `CCOc1cc(C=C2C(=O)N(C)C(=O)N(C)C2=O)ccc1OCCOc1ccc([N+](=O)[O-])cc1`, the displacement worked out at 38%. For `CN(C)c1ccc(C(=S)N2CCN(c3cccc(Cl)c3)CC2)cc1` the value was 11%; for `CCCN1C(=O)c2ccccc2NC1c1ccc(O)c(OC)c1` (stereo not given), -0.9%; for `CN1C(=O)/C(=C2\SC(=S)N(C3CCS(=O)(=O)C3)C2=O)c2ccccc21` (stereo not given), 9.3%. The result for `Fc1cccc(Cl)c1Cc1noc(/C=C/c2ccccc2)n1` reads 11.6%. For `NC(=O)c1ccc(N=Cc2ccccc2OCc2ccccc2)cc1` the value was -8.4%; for `O=C(Nc1ccc(F)c([N+](=O)[O-])c1)c1cc(I)ccc1Cl`, 7.4%; for `O=C(COc1ccc(Cl)cc1Br)NNC(=O)C(=O)N1CCCCC1`, -17%.

Regarding `CC(C)CC(=O)NS(=O)(=O)c1ccc(N)cc1`, the displacement was -6.8%.

With `CC(=O)Nc1ccc(Cl)c(-c2nc3ccccc3s2)c1`, the displacement was -4.7%. For `CCN1C(=O)/C(=C\c2cccc(OCc3ccc(Cl)cc3Cl)c2)SC1=S`, the displacement is -0.7%.

As for `O=C1/C(=C/c2cccs2)SC(=S)N1CCC(=O)N1c2ccccc2Sc2ccc(Cl)cc21`, the displacement worked out at 6.3%.

On to `COc1ccc(C)cc1NC(=O)C(=O)NCc1ccncc1`, for which the displacement was -15.6%. The result for `O=C(N/N=C/c1c[nH]c2ccc(Br)cc12)C(O)c1ccccc1` (stereo not given) reads -10.9%; that for `CCC1=NN2C(=N)/C(=C/c3ccc(-c4ccccc4C(=O)OC)o3)C(=O)N=C2S1`, 3.5%. Take `CC(C)CN1C(=O)c2ccc(C(=O)Nc3c[nH]c(=O)[nH]c3=O)cc2C1=O`: the displacement is 7.8%. The result for `CCOC(=O)c1ccccc1NC(=O)c1cc(Cl)ccc1[N+](=O)[O-]` reads 10.1%; that for `COc1ccc([N+](=O)[O-])cc1NC(=O)Cc1ccc(Cl)cc1`, 8.7%; that for `COc1ccc2oc(=O)c(C(=O)Nc3ccccc3F)cc2c1`, 16.3%. For the molecule `COc1ccc(C2=C/C(=C/c3cccc(OC)c3OC(C)=O)C(=O)O2)cc1`, the displacement is -10.8%. `NS(=O)(=O)c1ccc(Nc2nc(-c3ccncc3)cs2)cc1`: the displacement is 5.5%.

For the molecule `CC(C)C(=O)NNC1=CC(=O)CC(C)(C)C1`, the displacement amounted to 10%. For `O=C1/C(=C\Nc2ccc3c(c2)OCO3)CCc2ccccc21`, the displacement is 48.1%. For `C/C(=N\N=C1\NC(=O)C(CC(=O)Nc2ccc(Cl)c(Cl)c2)S1)c1ccco1` (stereo not given) the value was -5.1%.

In the case of `O=C(CSCC(=O)N1CCOCC1)Nc1ccccc1`, the displacement is -8.9%. The result for `CCOC(=O)C(=O)C1CCc2c([nH]c3ccc(C)cc23)C1=O` (stereo not given) reads 0.2%; that for `O=C(Nc1ccccc1Oc1ccccc1)c1cc2cc([N+](=O)[O-])ccc2oc1=O`, 8.5%.

For `CC1=NNC(=O)C1CCC(=O)N/N=C/c1c(O)ccc2ccccc12` (stereo not given), the displacement was -20.1%. The result for `COc1cccc(C2C(C#N)=C(N)SC(N)=C2C#N)c1` reads -45.6%; that for `O=C1CC(N2CCN(c3ccc(Cl)cc3)CC2)C(=O)N1c1ccc(F)cc1` (stereo not given), -5.3%; that for `COc1ccc(-n2c(=S)[nH]c3sc4c(c3c2=O)CCN(Cc2ccccc2)C4)cc1`, -2.5%. As for `CSc1nsc(SC)c1NC(=O)OCC1([N+](=O)[O-])COC(C)(C)OC1`, the displacement came out at 21.2%. `Cc1ccc(C(=O)CCNc2ccc(C)c(Cl)c2)o1`: the displacement was found to be 13.1%. With `CCOc1ccc(C(=O)Nc2cccc3nsnc23)cc1Br`, the displacement stood at 78.2%. The result for `Cc1csc(NC(=O)C2CCCCC2C(=O)O)n1` (stereo not given) reads -4%; that for `Cc1cc(C)nc(NC(=O)Nc2ccc(Cl)cc2)c1`, 0.3%; that for `Cc1ccc(NC2=NC3(CCCCC3)N=C(N)N2)c(C)c1`, -2.8%.

Take `COc1ccc(CC(=O)Nc2ccc(S(=O)(=O)N3CCCCCC3)cc2)cc1`: the displacement is -10.4%. `O=C(N1CCCC1)C12CC3CC(CC(C3)C1)C2`: the displacement turned out to be 17.7%. Regarding `Brc1ccc(OCCCCCN2CCCC2)cc1`, the displacement turned out to be 9.5%.

Consider `O=C1NN(c2ccc(Br)cc2)C(=O)/C1=C\c1ccc(O)cc1O`, for which the displacement turned out to be 16.3%. The result for `COc1ccc(C(=O)Nc2ccc(-c3nc4ccccc4o3)c(O)c2)cc1[N+](=O)[O-]` reads -5.7%. Turning to `C=CCn1c(SCC(=O)N2CCCCC2)nc2sc3c(c2c1=O)CCCC3`, the displacement came to 8.1%. `CCOc1cc(/C=N/n2cnnc2)ccc1OCCOc1cccc(C)c1`: the displacement is -7%. For `CN1CCN(/N=C/C(Br)=C\c2ccccc2)CC1` the value was 3.4%; for `O=C(c1ccc(F)cc1)N(Cc1ccccc1)c1ccccn1`, 2.1%.

As for `COCCOC(=O)c1ccc(NC(=O)COc2ccccc2C)cc1`, the displacement amounted to 6.2%.

For `CCCCS(=O)(=O)CC(O)COc1ccccc1` (stereo not given), the displacement amounted to 7.7%.

`COc1ccc(C2NC(=S)NC(C)=C2C(=O)Nc2ccccc2)c(OC)c1` (stereo not given): the displacement was -15.1%.
